The text below walks through data of the antibiotic and cytotoxicity screens of Wong et al. (2023).

Each structure is given as a SMILES string. The list shows a part of the results.

In one assay the test system is HSkMC. As to the kind of experiment: cytotoxicity call (relative viability < 0.9). The note with it: 10 µM.
The test system of a further assay is HepG2. In words: cytotoxicity call (relative viability < 0.9). Particulars: 10 µM.
The test system of the next assay is S. aureus RN4220. As to the kind of experiment: growth inhibition call (relative growth <= 0.2). The note with it: 50 µM.

Take `C[C@@H]1CN([C@@H](C)CO)C(=O)c2cc(NC(=O)Nc3ccccc3)ccc2O[C@H]1CN(C)C(=O)Nc1ccc(C(F)(F)F)cc1`: the cytotoxicity call in the assay with HSkMC and in the assay with HepG2 was “inactive” each time. Further, in the assay with S. aureus RN4220, the growth inhibition call was “inactive”.

As to `C[C@H](CO)N1C[C@H](C)[C@H](CN(C)C(=O)Cc2ccccc2)OCCCC[C@H](C)Oc2ccc(NC(=O)c3ccccc3)cc2C1=O`, the cytotoxicity call in the assay with HSkMC and in the assay on HepG2 was “inactive” throughout. Further, in the assay on S. aureus RN4220, the growth inhibition call was “inactive”.

For the molecule `C[C@H](CO)N1C[C@H](C)[C@H](CN(C)S(C)(=O)=O)Oc2c(NC(=O)Nc3ccccc3)cccc2C1=O`, the cytotoxicity call in the assay on HSkMC and with HepG2 was “inactive” throughout. The growth inhibition call in the assay on S. aureus RN4220 is “inactive”.

With `COc1ccc(CN(C)C[C@H]2OCCCC[C@@H](C)Oc3ccc(NC(=O)Nc4cccc5ccccc45)cc3C(=O)N([C@@H](C)CO)C[C@H]2C)cc1`, the cytotoxicity call with HSkMC and with HepG2 was “active” in each case. For the same molecule, the growth inhibition call with S. aureus RN4220 is “inactive”.

On to `C[C@H]1CN([C@@H](C)CO)C(=O)c2cccc(NS(=O)(=O)c3cccs3)c2O[C@H]1CN(C)S(=O)(=O)c1cn(C)cn1`, for which the cytotoxicity call in the assay on HSkMC and in the assay with HepG2 was “inactive” in each case. In addition, in the assay on S. aureus RN4220, the growth inhibition call was “inactive”.

On to `O=C(c1cnccn1)N1CCC2(CCCN2)CC1`, for which the cytotoxicity call with HSkMC and in the assay with HepG2 was “inactive” each time. Besides, the growth inhibition call in the assay with S. aureus RN4220 was “inactive”.

With `C=C(CO)C(=O)O[C@H]1C[C@@]2(C)OC(=O)/C(=C/C)[C@]2(O)CC[C@@]2(C)CC(=O)[C@]1(C(=C)C(=O)OC)O2`, the cytotoxicity call with HSkMC and in the assay on HepG2 was “inactive” in each case. Besides, the growth inhibition call in the assay on S. aureus RN4220 was “inactive”.

Take `COc1ccc(S(=O)(=O)N(C)C[C@H]2Oc3c(NC(=O)Nc4cccc5ccccc45)cccc3C(=O)N([C@H](C)CO)C[C@@H]2C)cc1`: the cytotoxicity call with HSkMC was “inactive”. Further, the cytotoxicity call in the assay with HepG2 was “active”. The growth inhibition call with S. aureus RN4220 is “inactive”.

As to `C[C@@H]1CN([C@H](C)CO)C(=O)c2cccc(NC(=O)Nc3cccc4ccccc34)c2O[C@H]1CN(C)S(=O)(=O)c1ccccc1`, the cytotoxicity call in the assay with HSkMC and in the assay with HepG2 was “inactive” in each case. Further, in the assay on S. aureus RN4220, the growth inhibition call is “inactive”.

As to `CCCC[C@H](NC(C)=O)C(=O)N[C@@H](CCC(N)=O)C(=O)N[C@@H](Cc1c[nH]cn1)C(=O)N[C@H](Cc1ccccc1)C(=O)N[C@@H](CCCNC(=N)N)C(=O)N[C@H](Cc1c[nH]c2ccccc12)C(=O)NCC(N)=O`, the cytotoxicity call in the assay on HSkMC and in the assay on HepG2 was “inactive” each time. For the same molecule, the growth inhibition call in the assay with S. aureus RN4220 was “inactive”.

As for `COc1ccc(CN(C)C[C@@H]2Oc3ccc(NS(C)(=O)=O)cc3C(=O)N([C@H](C)CO)C[C@H]2C)cc1`, the cytotoxicity call in the assay on HSkMC and in the assay with HepG2 was “inactive” in each case. The growth inhibition call with S. aureus RN4220 is “inactive”.

As to `COc1ccc(C#Cc2cccc(-c3nc(C(=O)N[C@@H]4CCN(Cc5ccccc5)C4)cc4c3[C@@H](CCO)N(S(=O)C(C)(C)C)C4)c2)cc1OC` (some centres not stated), the cytotoxicity call in the assay with HSkMC and in the assay with HepG2 was “inactive” in each case. For the same molecule, the growth inhibition call in the assay on S. aureus RN4220 was “inactive”.

Regarding `O=C(C[C@H]1CC[C@@H]2[C@H](COC[C@@H](O)CN2S(=O)(=O)c2ccc(F)cc2)O1)N[C@@H]1CCN(Cc2ccccc2)C1`, the cytotoxicity call in the assay with HSkMC and in the assay with HepG2 was “inactive” in each case. Moreover, the growth inhibition call in the assay with S. aureus RN4220 was “inactive”.

Turning to `C[C@H](CO)N1C[C@H](C)[C@@H](CN(C)Cc2ccc3c(c2)OCCN3C)OCc2cnnn2CCCC1=O`, the cytotoxicity call in the assay with HSkMC and with HepG2 was “inactive” each time. Also, the growth inhibition call with S. aureus RN4220 was “inactive”.

`C[C@H](CO)N1C[C@H](C)[C@@H](CN(C)C(=O)Cc2ccncc2)Oc2cc(C#CC3CC3)ccc2S1(=O)=O`: the cytotoxicity call in the assay with HSkMC and with HepG2 was “inactive” in each case. Also, the growth inhibition call in the assay on S. aureus RN4220 was “inactive”.

For the molecule `C[C@]12C=CC(=O)N[C@@H]1CC[C@@H]1[C@@H]2CC[C@]2(C)[C@@H](C(=O)Nc3cc(C(F)(F)F)ccc3C(F)(F)F)CC[C@@H]12`, the cytotoxicity call in the assay with HSkMC and in the assay on HepG2 was “inactive” each time. Further, the growth inhibition call in the assay on S. aureus RN4220 was “inactive”.

Consider `Cc1ccc(S(=O)(=O)N(C)C[C@H]2Oc3ccc(NC(=O)Cn4cnnn4)cc3CC(=O)N([C@@H](C)CO)C[C@@H]2C)cc1`, for which the cytotoxicity call in the assay with HSkMC and in the assay on HepG2 was “inactive” each time. Also, in the assay on S. aureus RN4220, the growth inhibition call is “inactive”.

Consider `C[C@@H]1CCCCO[C@@H](CN(C)Cc2ccc(C(=O)O)cc2)[C@H](C)CN([C@H](C)CO)C(=O)c2cc(NC(=O)Nc3cccc4ccccc34)ccc2O1`, for which the cytotoxicity call in the assay with HSkMC and with HepG2 was “inactive” throughout. In addition, in the assay on S. aureus RN4220, the growth inhibition call is “inactive”.

With `C[C@@H]1CCCCO[C@@H](CN(C)C(=O)NC2CCCCC2)[C@H](C)CN([C@@H](C)CO)C(=O)c2cc(NC(=O)c3ccccc3)ccc2O1`, the cytotoxicity call in the assay on HSkMC and in the assay with HepG2 was “inactive” each time. The growth inhibition call in the assay on S. aureus RN4220 was “inactive”.

For the molecule `Cc1cc(C(=O)Nc2cccc3c2O[C@H](CN(C)C(=O)Nc2ccccc2)[C@@H](C)CN([C@@H](C)CO)C3=O)n(C)n1`, the cytotoxicity call in the assay on HSkMC (human skeletal muscle cells) and with HepG2 was “inactive” throughout. In the assay with S. aureus RN4220, the growth inhibition call is “inactive”.

Consider `O=C(N/N=C/[C@H](O)[C@@H](O)[C@@H](O)[C@H](O)C(=O)O)c1ccccc1O`, for which the cytotoxicity call with HSkMC was “inactive”. For the same molecule, the cytotoxicity call in the assay with HepG2 was “active”. In addition, the growth inhibition call in the assay on S. aureus RN4220 was “inactive”.

For the molecule `CN(C)CC#Cc1ccc([C@@H]2[C@H]3CN(C(=O)CN(C)C)CC(=O)N3[C@H]2CO)cc1`, the cytotoxicity call with HSkMC and in the assay on HepG2 was “inactive” in each case. The growth inhibition call in the assay on S. aureus RN4220 is “inactive”.

On to `CC(C)(C)[S@@](=O)N1Cc2cc(C(=O)NC3CCC3)nc(-c3cccc(-c4ccccc4F)c3)c2[C@H]1CCO`, for which the cytotoxicity call with HSkMC and with HepG2 was “inactive” in each case. For the same molecule, in the assay with S. aureus RN4220, the growth inhibition call is “inactive”.

For the molecule `C[C@H](CO)N1C[C@H](C)[C@H](CN(C)C(=O)Nc2cccc3ccccc23)OCCCC[C@H](C)Oc2ccc(NC(=O)Nc3ccc(F)cc3)cc2C1=O`, the cytotoxicity call with HSkMC and in the assay with HepG2 was “inactive” in each case. In the assay with S. aureus RN4220, the growth inhibition call was “inactive”.
